# Results reported in PubChem BioAssay AID504467 (National Center for Advancing Translational Sciences (NCATS), 2011).
# In all, about 330,000 compounds went through this assay and about 7,700 (2.3%) were called active. Another 26% or so got no clear call; they are omitted. Calls come from the whole dose curve; as a rule, active = well fitted inhibition curve with a large enough effect; inconclusive = small, poorly fitted or top-dose-only effect, or effect the other way; inactive = flat fitted curve, though single readings scatter. This is a selection; strong and weak results do not stand in their true shares.
# Assay: qHTS screen for small molecules that inhibit ELG1-dependent DNA repair in human embryonic kidney (HEK293T) cells expressing luciferase-tagged ELG1; note: nearly all actives have a fitted effect of over 55% in size
# Conditions: HEK293T ELG1-luciferase reporter, luminescence, 16 h, DNA damage induced by 5-fluorouridine; series mostly up to 46.1 µM; activity change, negative = inhibition: at the top concentration
# Source text: NIH Molecular Libraries Probe Production Network [MLPCN] NIH Chemical Genomics Center [NCGC] MLPCN Grant: 1 R03 MH092164-01 Assay Provider: Kyungjae Myung, NHGRI, NIH Keywords: MLPCN, qHTS, NCGC, genotoxicity, cancer Assay Overview: Cancer cells divide rapidly compared to normal cells in the body. During cell division, cancer cells need to duplicate their genome by DNA replication. The failure of genome duplication leads to cancer cells' death. Therefore, inhibitors of DNA replication could specifically kill cancer cells. Based on this concept, many chemotherapeutic agents were developed and have been used to treat cancer patients. However, there are a limited number of agents available in the clinical setting, and some of those that do exist have low efficacy and severe side effects. Therefore, if we can find the compounds that effectively block DNA replication either by directly damaging DNA or by inhibiting other cellular mechanisms, the options for cancer treatment will be broadened. With this in mind, we developed a quantitative high-throughput ELG1-luciferase reporter gene assay. Small molecules that specifically block ELG1 function in response to DNA damage can be identified by monitoring the suppression of luciferase activity. Since ELG1 defines a pathway for repairing DNA damage, agents blocking ELG1 function can be used to sensitize cancer cells to chemotherapeutic agents whose mechanism of action involves the induction of DNA damage.
# Assay Protocol Summary: For genotoxicity screening, 2,000 cells in 4 uL/well were dispensed into white, solid-bottom 1536-well plates using a solenoid-based dispenser. Following transfer of 1 uL 5-Fluorouridine and 23 nL compound or DMSO vehicle by a pin tool, the plates were incubated 16 hr at 37 °C and 5% CO2. 5 ul ONE-Glo (Promega) was then added to each plate and following a 30 min incubation at room temperature, luciferase activity was quantified on a ViewLux CCD-based plate reader.
# % is set by controls: 0 for no effect and ±100 for the full control effect; potency is the fitted concentration of half-maximal effect.
Compound,"activity change, negative = inhibition",Potency
NC(=O)C1=C[C@@H](c2ccc(Br)cc2)C[C@@H](OCc2ccc(CO)cc2)O1,inactive: -0.328%,
CCOC(=O)c1sc2nc(CC(=O)OC)nc(NCc3ccc(Cl)cc3)c2c1C,,active: 5.8 µM
COc1ccccc1N1CCN(/N=C/C=C\c2ccccc2[N+](=O)[O-])CC1,inactive: -7.15%,
C[C@H](CO)N1C[C@H](C)[C@@H](CN(C)C(=O)Nc2ccc3c(c2)OCO3)Oc2c(NC(=O)C3CC3)cccc2C1=O,inactive: -0.0662%,
C=CC[C@@H](CC(=O)N(CCO)Cc1ccccc1)C(=O)N[C@@H](C)COC(=O)[C@@H](CC=C)CC(=O)OC(C)(C)C,inactive: -2.79%,
O=C(CCCNC(=O)/C(=C\c1ccccc1F)NC(=O)c1ccccc1)OCc1ccccc1,inactive: -7.6%,
O=C1/C(=N\S(=O)(=O)c2cccs2)C([n+]2cccc(Cc3ccccc3)c2)=C([O-])c2ccccc21,,active: 2.31 µM
CC(C)(C)OC(=O)C[C@H]1C/C=C\C[C@H](CC(=O)NCCO)C(=O)NCCOC1=O,inactive: 27.2%,
CCOC(=O)[C@@H]1[C@H]2COc3cc(OC)ccc3[C@H]2N2C(=O)N(c3ccc(F)cc3)C(=O)[C@@]12C,inactive: 27.7%,
COc1cc(/C=C2/SC(=S)N(CC(=O)NC(C)(C)C)C2=O)cc(OC)c1OC,inactive: -17.5%,
COc1ccc2cc3[n+](cc2c1OC)CCc1cc2c(cc1-3)OCO2,inactive: 1.63%,
CC(C)(C)NCC(O)COc1cccc2c1CC(O)C(O)C2 (stereo not drawn),inactive: 18.7%,
COc1ccc(-c2csc(NC(=O)Cc3ccccc3F)n2)cc1OC,,active: 16.4 µM
CCO[C@@H]1OC(C(=O)N2CCN(Cc3ccc4c(c3)OCO4)CC2)=C[C@H](c2ccc3c(c2)OCO3)[C@H]1CCCO,inactive: -16.7%,
C[C@@H](NC(=O)OC(C)(C)C)C(=O)NCC1CCC(C(=O)N[C@@H](Cc2ccccc2)C(=O)O)CC1 (stereo partly drawn),inactive: 18.5%,
C[C@H]1CC[C@@]2(O[C@@H](CCO)C[C@@H](O)[C@@H]2O)O1,inactive: 9.05%,
CC(=O)C[C@H](O)CC(=O)[C@@H]1OC(=O)[C@@H](C)C/C=C\Cc2ccccc21,inactive: 8.08%,
CC(=O)O[C@]1(C(C)=O)CC[C@H]2[C@@H]3C=C(C)C4=CC(=O)CC[C@]4(C)[C@H]3CC[C@@]21C,inactive: -6.03%,
CC(C)[C@H](NC(=O)N1CCn2c1nc1ccccc12)C(=O)N[C@H](C(=O)O)c1ccccc1,inactive: 0.961%,
Cc1ccsc1/C=C1/SC(N2CC(C)OC(C)C2)=NC1=O (stereo not drawn),inactive: -28.5%,
CCOC(=O)[C@H]1[C@H]2COc3ccc(Br)cc3[C@@H]2N2C(=O)N(c3ccc(F)cc3)C(=O)[C@@]12C,inactive: -7.99%,
O=C(c1cc(C(=O)NCCc2ccccc2)c(=O)n(CCc2ccccc2)c1)c1cc(Cl)ccc1O,,active: 23.1 µM
CCOC(=O)[C@H]1[C@H]2COc3cc(OC)ccc3[C@@H]2N2C(=O)N(c3ccc(Br)cc3)C(=O)[C@@]12C,inactive: -6.4%,
O=C(NCC1CCN(c2ccc(S(=O)(=O)N3CCOCC3)cc2)CC1)Nc1ccccc1,,active: 14.6 µM
NC1=NC(=O)/C(=C\c2ccsc2)S1,inactive: -1.7%,
CC(C)(C)OC(=O)C[C@H]1C/C=C\C[C@H](CC(=O)N(CCO)Cc2ccccc2)C(=O)N[C@@H](Cc2ccccc2)COC1=O,inactive: -3.14%,

Compound,"activity change, negative = inhibition",Potency
OCC[C@H]1C[C@H](O)[C@@H](O)[C@@]2(CCc3ccccc3CO2)O1,inactive: 10.4%,
CCOC(=O)[C@@H]1[C@H]2COc3ccc(Br)cc3[C@H]2N2C(=O)N(c3ccc(F)cc3)C(=O)[C@@]12C,inactive: 0%,
NC(=O)C1=C[C@@H](c2ccccc2)C[C@@H](OCc2ccc(CO)cc2)O1,inactive: 2.08%,
C=CC[C@H](CC(=O)NCCO)C(=O)N[C@@H](COC(=O)[C@H](CC=C)CC(=O)OC(C)(C)C)Cc1ccccc1,inactive: 5.28%,
C[C@@]12CCC[C@H](O1)[C@@H]([C@H](O)c1ccccc1)O2,inactive: -1.05%,
CC(C)[N+]1(C)[C@@H]2CC[C@H]1CC(OC(=O)C(CO)c1ccccc1)C2 (stereo partly drawn),,inactive
O=C(NCc1nc2ccccc2[nH]1)C1=C[C@@H](c2ccccc2)C[C@@H](OCc2ccc(CO)cc2)O1,inactive: -20.5%,
O=C(CSc1nc2ccccc2[nH]1)N/N=C/C=C\c1ccccc1[N+](=O)[O-],inactive: -9.99%,
O=C(CNC(=O)c1ccccc1O)N/N=C/c1cc(Br)ccc1OC(=O)/C=C/c1ccco1,,active: 4.11 µM
CCO[C@H]1OC(C(N)=O)=C[C@@H](c2ccccc2)[C@@H]1CCCO,inactive: -8.81%,
CCOc1ccc(CN2CCN(Cc3c[nH]c4ccccc34)CC2)cc1,,active: 13 µM
Nc1ccn(C2CC(O)C(CO)O2)c(=O)n1 (stereo not drawn),inactive: 4.38%,
CCN1/C(=C2/OC(=S)N(C)C2=O)Sc2ccccc21,inactive: 19.6%,
C[C@@H]1CN([C@H](C)CO)C(=O)c2cccc(NC(=O)NC3CCCCC3)c2O[C@@H]1CN(C)C(=O)Nc1ccc(C(F)(F)F)cc1,inactive: -21.9%,
Cn1c(=O)c2c(nc(NCc3ccc4c(c3)OCO4)n2Cc2ccccc2)n(C)c1=O,,active: 16.4 µM
COC(=O)[C@H](C)[C@@H]1C[C@@]1(C)[C@@H](NC(=O)OCc1ccccc1)c1ccccc1,inactive: 1.28%,
CC1C(=O)N(Cc2ccccc2)c2ccccc2N1C(=O)c1ccccc1 (stereo not drawn),,active: 25.9 µM
C[C@H](NC(=O)c1nc[nH]c1C(=O)N1CCN(C(=O)OC(C)(C)C)CC1)c1ccccc1,inactive: 0%,
CC(C)(C)NC(=O)/C(=C\c1cccnc1)NC(=O)c1ccco1,inactive: 3.75%,
Cc1cn(C2C=CC(CO)O2)c(=O)[nH]c1=O (stereo not drawn),inactive: 23.5%,
O=C(Nc1cccc(NC(=O)c2ccco2)c1)c1ccc([N+](=O)[O-])cc1,,active: 11.6 µM
O=c1cc(-c2ccc(O)cc2)oc2cc(O)c([C@@H]3O[C@H](CO)[C@@H](O)[C@H](O)[C@H]3O)c(O)c12,inactive: 12.5%,
CCOc1ccc(CN(C)CC(=O)Nc2ccc3c(c2)CCC3)cc1OC,,active: 16.4 µM
CN(c1ccccc1)S(=O)(=O)c1cccc(NC(=O)C2=NN(c3ccccc3)C(=O)CC2)c1,,active: 7.3 µM
CCOc1ccc(C(C)=O)cc1COC(=O)c1ccc2c(c1)NC(=O)CS2,,active: 16.4 µM
Cc1c(C(=O)N2CCN(c3ccc([N+](=O)[O-])cc3)CC2)oc2ccccc12,,active: 11.2 µM

Compound,"activity change, negative = inhibition",Potency
C=CCC[C@H](Cc1ccc(F)cc1)C(=O)OC[C@@H](C)NC(=O)[C@@H](CC=C)CC(=O)N[C@H](CO)Cc1ccccc1,inactive: -9.41%,
CCO/C([O-])=N/c1c[n+](N2CCOCC2)no1,,inactive
Cc1cc(C)c[n+](C2=C([O-])c3ccccc3C(=O)/C2=N\S(=O)(=O)c2cccs2)c1,,active: 11.6 µM
O=C(C1=C[C@H](c2coc3ccccc3c2=O)C[C@H](OCc2ccc(CO)cc2)O1)N1CCN(Cc2ccccc2)CC1,inactive: -0.599%,
NS(=O)(=O)c1ccc(CCNc2nc(C(F)(F)F)nc3ccccc23)cc1,,active: 11.6 µM
O=C(CCCN1C(=O)/C(=C/c2cccs2)SC1=S)Nc1ccccn1,inactive: -18.9%,
Cc1ccc(S(=O)(=O)N2C[C@@H]3[C@H]4CC[C@H](C4)[C@@H]3[C@@H](C)[C@H]2c2ccco2)cc1,inactive: -6.55%,
CCCCCCCCCCOC(=O)Cn1c(COc2ccc(OC)cc2)[n+](C)c2ccccc21,inactive: -1.2%,
O=C(O)C1=C[C@H](c2coc3ccccc3c2=O)C[C@H](OCCCCO)O1,inactive: 6.82%,
CC(C)Cn1c(N)c(C(=O)COC(=O)c2cc(C3CC3)nc3ccccc23)c(=O)n(C)c1=O,,active: 23.1 µM
Cc1ccc(C(=O)Nc2ccc(C)c(S(=O)(=O)Nc3ccccc3Cl)c2)s1,,active: 20.6 µM
C=CC[C@H](CC(=O)NCCO)C(=O)N[C@@H](COC(=O)[C@@H](CC=C)CC(=O)OC(C)(C)C)Cc1c[nH]c2ccccc12,inactive: -3.33%,
COC(=O)N1C(=O)[C@](Cc2ccccc2)(c2ccccc2)N1C(=O)OC,inactive: 0%,
CCCCOC(=O)C1CCC[C@@H](C)N1 (stereo partly drawn),inactive: 20.7%,
CCOC(=O)N1CC=C2C(C#N)=C(N)C(C#N)(C#N)[C@H](c3cccs3)[C@H]2C1,inactive: 0%,
CCOC(=O)c1c(NC(=O)c2cccs2)sc2c1CC(C)(C)OC2,,active: 9.2 µM
O=C1OC[C@@H]2CCCN2C(=O)[C@@H](CC(=O)N(CCO)Cc2ccccc2)C/C=C\CC[C@H]1Cc1ccc(F)cc1,inactive: -22.9%,
C[C@H](NC(=O)c1nc[nH]c1C(=O)NCC(=O)OC(C)(C)C)c1ccccc1,inactive: -5.77%,
Cc1ccc(C(=O)N/C(=C/c2ccccc2)C(=O)NCC2CCCO2)cc1 (stereo not drawn),inactive: 2.86%,
CC1=NN(c2ccccc2)C(=O)/C1=C/c1cn(C)c2ccccc12,inactive: -14.9%,
CCOC(=O)[C@@H]1[C@H]2COc3ccccc3[C@@H]2N2C(=O)N(c3cccc(C)c3)C(=O)[C@@]12C,inactive: 17.9%,
COc1cc2nc(N3CCN(C(=O)[C@@H]4CCCO4)CC3)nc(N)c2cc1OC,inactive: -7.14%,
CC1(C)Oc2ccc3ccc(=O)oc3c2[C@H](O)[C@H]1O,inactive: 28.3%,
O=C1NCC(O)=C1C=NC12CC3CC(CC(C3)C1)C2,inactive: 2.26%,
COc1ccc(Br)cc1/C=C/C(=O)Nc1ccc(C)cc1,,active: 20.6 µM
CNC[C@H]1Oc2c(NS(=O)(=O)c3ccc(OC)cc3)cccc2C(=O)N([C@H](C)CO)C[C@@H]1C,inactive: 4.95%,
